Measured values published in patent US10299477B2 (priority 2015, dated 2019).

Legend:
Assay type in all cases: in vivo
Botrytis cinerea = assay: Test Example B: Gray mold on tomato; conditions: for Test B control value (gray mold on tomato): preventive, control value class
From the text: [Test Example B] Gray Mold on Tomato
Seeds of a test plant (tomato variety: Oogata Fukuju) were planted followed by cultivating until three to five first leaves (true leaves) appeared.

Puccinia recondita = assay: Test Example E: Brown rust on wheat; conditions: for Test E control value (brown rust on wheat): preventive, control value class
From the text: [Test Example E] Brown Rust on Wheat

Plasmopara viticola = assay: Test Example G: Downy mildew on vine; conditions: for Test G control value (downy mildew on vine): 250 ppm spray (2.5 ml/pot), preventive, control value class; for Test G (control value class): 250 ppm spray
From the text: [Test Example G] Downy Mildew on Vine
Seeds of a test plant (grape variety: Neomuscat) were planted followed by cultivating until three to four first leaves appeared. […] After the sprayed dilutions were dried, a zoosporangia suspension (1-2×10^4 zoosporangia/ml) of Plasmopara viticola was inoculated to the plants by spraying.

[1] = tested on: Blumeria graminis f sp. hordei; assay: Test Example D: Powdery mildew on barley; conditions: for Test D control value (powdery mildew on barley): preventive, control value class
From the text: [Test Example D] Powdery Mildew on Barley
After the sprayed dilutions were dried, conidia of Blumeria graminis f sp. hordei were inoculated to the plants by shaking off.

Alternaia brassicicola = assay: Test Example C: Alternaria sooty spot on cabbage; conditions: for Test C control value (Alternaria sooty spot on cabbage): preventive, control value class; for Test C (control value class): Alternaria sooty spot on cabbage
From the text: [Test Example C] Alternaria Sooty Spot on Cabbage
Seeds of a test plant (cabbage variety: Shikidori) were planted followed by cultivating until the cotyledons extended.

[2] = gray mold on tomato, Botrytis cinerea, 250 ppm spray
[3] = brown rust on wheat, Puccinia recondita, 250 ppm spray
[4] = downy mildew on vine, Plasmopara viticola, 7-10 days after inoculation
[5] = powdery mildew on barley, 250 ppm spray

Compound	Test B control value (gray mold on tomato) (Botrytis cinerea; 250 ppm spray)	Test E control value (brown rust on wheat) (Puccinia recondita; 250 ppm spray)	Test G control value (downy mildew on vine) (Plasmopara viticola; 7-10 days after inoculation)	Test D control value (powdery mildew on barley) ([1]; 250 ppm spray)	Test C control value (Alternaria sooty spot on cabbage) (Alternaia brassicicola; 250 ppm spray)	Test B (control value class) (Botrytis cinerea; [2])	Test E (control value class) (Puccinia recondita; [3])	Test G (control value class) (Plasmopara viticola; [4])	Test D (control value class) [1, 5]	Test C (control value class) (Alternaia brassicicola; 250 ppm spray)	also measured
CCn1c(-c2c(F)cc(Br)cc2F)c(-c2cc(OC)c(Cl)c(OC)c2)ccc1=O [Compound 202]	H (H shows more than 50% of control values)	H (H shows more than 50% of control values)	H (H shows more than 50% of control values)	L (L shows 50% or less of control values)	H (H shows more than 50% of control values)						
Cn1c(-c2c(F)cccc2F)c(-c2ccc(Cl)cc2Cl)ccc1=O [Compound 346]	H (H shows more than 50% of control values)	L (L shows 50% or less of control values)	L (L shows 50% or less of control values)	L (L shows 50% or less of control values)	H (H shows more than 50% of control values)						
CCn1c(-c2c(F)cc(F)cc2F)c(-c2cc(OCOC)ccc2Cl)cc(Cl)c1=O [Compound 795]											Test B (control value class) (Botrytis cinerea; Gray mold on tomato, control value=100{1-(n/3)}): H (H shows more than 50% of control values); Test E (control value class) (Puccinia recondita; Brown rust on wheat, control value=100{1-(n/3)}): H (H shows more than 50% of control values); Test G (control value class) (Plasmopara viticola; Downy mildew on vine, 2.5 ml/pot, evaluated 7-10 days after inoculation): H (H shows more than 50% of control values); Test D (control value class) ([1]; Powdery mildew on barley, control value=100{1-(n/3)}): H (H shows more than 50% of control values); Test C (control value class) (Alternaia brassicicola; control value=100{1-(n/3)}): H (H shows more than 50% of control values)
CCn1c(-c2c(F)cccc2F)c(-c2cc(OCOCC[Si](C)(C)C)ccc2Cl)ccc1=O [Compound 245]	H (H shows more than 50% of control values)	L (L shows 50% or less of control values)	L (L shows 50% or less of control values)	H (H shows more than 50% of control values)	H (H shows more than 50% of control values)						
CCn1c(-c2c(F)cc(OC)cc2F)c(-c2cccc(F)c2Cl)cc(Cl)c1=O [Compound 490]						H (H shows more than 50% of control values)	H (H shows more than 50% of control values)	L (L shows 50% or less of control values)	H (H shows more than 50% of control values)	H (H shows more than 50% of control values)	
Cn1c(-c2c(F)cccc2F)c(-c2cccc(F)c2F)cc(Br)c1=O [Compound 536]						H (H shows more than 50% of control values)	H (H shows more than 50% of control values)	L (L shows 50% or less of control values)	H (H shows more than 50% of control values)	H (H shows more than 50% of control values)	
CCn1c(-c2c(F)cccc2F)c(-c2cccc(C)c2)cc(Cl)c1=O [Compound 220]	L (L shows 50% or less of control values)	L (L shows 50% or less of control values)	L (L shows 50% or less of control values)	L (L shows 50% or less of control values)	L (L shows 50% or less of control values)						
CCn1c(-c2c(F)cccc2F)c(-c2ccc(C)cc2)cc(Cl)c1=O [Compound 272]	H (H shows more than 50% of control values)	H (H shows more than 50% of control values)	H (H shows more than 50% of control values)	H (H shows more than 50% of control values)	H (H shows more than 50% of control values)						
C#CCN1C(=O)CCC(c2cc(OC)ccc2Cl)=C1c1c(F)cccc1F [Compound 456]						H (H shows more than 50% of control values)	H (H shows more than 50% of control values)	L (L shows 50% or less of control values)	H (H shows more than 50% of control values)	H (H shows more than 50% of control values)	
